From the BET-seq Pho4 binding data (Le et al. 2018)
The other results are listed elsewhere or left out. These are noisy estimates, calculated here from bound and input reads.

Biological target: T1, Pho4 (S. cerevisiae) (UniProt P07270)
T1 sequence: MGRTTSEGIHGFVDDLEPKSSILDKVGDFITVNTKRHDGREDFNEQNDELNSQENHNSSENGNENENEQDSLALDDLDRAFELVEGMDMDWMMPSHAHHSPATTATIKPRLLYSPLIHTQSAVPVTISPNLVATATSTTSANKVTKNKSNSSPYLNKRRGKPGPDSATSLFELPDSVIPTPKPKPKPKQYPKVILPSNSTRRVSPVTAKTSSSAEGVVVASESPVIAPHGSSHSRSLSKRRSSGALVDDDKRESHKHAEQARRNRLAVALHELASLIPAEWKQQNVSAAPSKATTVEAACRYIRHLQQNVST
Experiment: relative binding free energy (BET-seq); higher = weaker binding
Conditions: reference: library average

Row | Sequence | relative binding free energy [kcal/mol]
1 | GGTGCCACGTGTTTGG | 0.03
2 | GTCAGCACGTGGTGGA | -0.11
3 | GTGTTCACGTGGGACT | 0.23
4 | GGGGGCACGTGGATCT | 0.07
5 | GGAGACACGTGAGAGG | 0.26
6 | GTGAGCACGTGGAGAG | -0.05
7 | GCGTTCACGTGCGGGG | 0.13
8 | TTTGTCACGTGGGTTA | 0.1
9 | TGGGTCACGTGGAGCC | 0.05
10 | GGGCTCACGTGGTGCT | 0.16
11 | CGAATCACGTGGTGTG | 0.19
12 | ATGAACACGTGATAGG | 0.1
13 | CTGTTCACGTGTGAAG | 0.27
14 | ATATACACGTGGGTAG | -0.13
15 | TGTTGCACGTGTAGAT | 0.19
16 | GATGTCACGTGTTTGT | 0.18
17 | AATCTCACGTGTTTTG | 0.19
18 | ACAGTCACGTGTGGTA | 0.07
19 | ATTATCACGTGGAATT | 0.2
20 | TATGGCACGTGGCGGC | -0.14
21 | AGGTTCACGTGTAGCT | 0.32
22 | GGTTTCACGTGCGAGA | 0.36
23 | AAGGACACGTGTTTGA | -0.05

Row | Sequence | relative binding free energy [kcal/mol]
24 | TTTTGCACGTGAGCGG | 0.15
25 | CGTGTCACGTGGATGG | 0.09
26 | AAGTGCACGTGTTTAT | -0.11
27 | TATTGCACGTGTGCGC | 0.07
28 | TTCGGCACGTGTGGGG | 0.04
29 | ACGGGCACGTGTTGTT | -0.05
30 | ATTTTCACGTGATGCT | 0.29
31 | CTGGACACGTGACGGG | 0.22
32 | CTCGTCACGTGTTTTT | 0.01
33 | AAGGACACGTGTGCTG | 0.15
34 | AGAGGCACGTGGTAAG | -0.12
35 | GGGTGCACGTGCATGG | -0.08
36 | GAGGTCACGTGAGTAG | 0.29
37 | GAGTTCACGTGGGGAA | 0.21
38 | GATTTCACGTGTAGTG | 0.09
39 | TTAGACACGTGGAAGG | 0.16
40 | TGAGACACGTGTGATG | 0.18
41 | TCATGCACGTGGTATG | -0.13
42 | GAGGTCACGTGTTATA | 0.08
43 | AGTGACACGTGACGTT | 0.05
44 | GTTGACACGTGAGGGA | 0.25
45 | GTGGACACGTGGCTAA | 0.06
46 | GTGGACACGTGAGTGA | 0.18

Row | Sequence | relative binding free energy [kcal/mol]
47 | GCTATCACGTGCGGGT | 0.15
48 | TGCTTCACGTGGTCTG | 0.11
49 | AGGGGCACGTGGTGTT | -0.18
50 | AGGCTCACGTGTTGTA | 0.27
51 | ATGAGCACGTGGGGAT | -0.18
52 | TGTTGCACGTGATGCG | 0.01
53 | TACGACACGTGAGTTG | 0.29
54 | GCCGTCACGTGTGTGA | 0.24
55 | GGATGCACGTGATTGA | 0.23
56 | ATGTACACGTGGAAGG | 0.08
57 | CTGTGCACGTGGTTGC | -0.02
58 | TAGCGCACGTGTATTT | -0.07
59 | AGGCTCACGTGGTAGT | 0.25
60 | TAGCGCACGTGGGAGA | -0.12
61 | CTTGGCACGTGATATG | 0.01
62 | CATGACACGTGCGGGT | 0.05
63 | ATTCGCACGTGTGCGG | 0.12
64 | TGTTGCACGTGCTAAT | 0
65 | TGGCTCACGTGGGGTC | 0.05
66 | ATGAACACGTGCAGGG | 0.08
67 | CCTGGCACGTGGGGCG | -0.23
68 | TAAATCACGTGGTTTG | 0.04
69 | GTGATCACGTGTTTGC | 0.15

Row | Sequence | relative binding free energy [kcal/mol]
70 | GAGGACACGTGGGAGT | -0.08
71 | AGGGACACGTGAGGCG | 0.1
72 | TTAGGCACGTGTTGGG | -0.06
73 | TTAAACACGTGTCGGG | 0.02
74 | AGTAGCACGTGTTTGC | -0.15
75 | GGGGACACGTGAGGTA | 0.16
76 | GTACTCACGTGGGGGT | 0.06
77 | TTGGACACGTGGCTAT | 0.03
78 | GCATGCACGTGGATGG | -0.08
79 | TGAAACACGTGGACGT | 0.19
80 | AAATTCACGTGTGGTC | 0.19
81 | TTTTTCACGTGTAATA | 0.26
82 | GTAGGCACGTGCATGG | -0.04
83 | TCGTACACGTGGAGGG | -0.07
84 | CTTGCCACGTGTATGG | -0.02
85 | ATAGTCACGTGCCAGG | 0.15
86 | TCTCGCACGTGAGGTT | 0.1
87 | AATTTCACGTGGGATG | 0.32
88 | TGCGACACGTGTATAT | 0.22
89 | GGTGGCACGTGTGAGT | 0.07
90 | GTGGACACGTGTACAG | 0.15
91 | TTTTGCACGTGGATAG | 0.02
92 | GTTAGCACGTGAACTG | 0.47

Row | Sequence | relative binding free energy [kcal/mol]
93 | GATGCCACGTGTTGGA | 0.05
94 | GGGACCACGTGTTGTG | 0.02
95 | TTTCGCACGTGGTGTA | -0.16
96 | TTTTTCACGTGAATGC | 0.51
97 | TGTAACACGTGTTAAG | -0.17
98 | TAAGTCACGTGGCGGG | -0.01
99 | GAGATCACGTGAGGCG | 0.39
100 | TGCGTCACGTGGTTGG | 0.13
101 | TCGTTCACGTGTGTAG | 0.2
102 | ATGAACACGTGCTGGT | -0.1
103 | TAAGGCACGTGTTGTT | -0.11
104 | GATGTCACGTGGTTGT | 0.15
105 | TGGAACACGTGGGTTG | -0.11
106 | TCGAGCACGTGGGGGT | -0.29
107 | AGGGTCACGTGGAGGT | 0.12
108 | TGTACCACGTGTGGTC | -0.03
109 | TTAGACACGTGTTCGG | 0.01
110 | AAATGCACGTGGTGGC | -0.03
111 | AGTCCCACGTGGTTGT | -0.07
112 | GTATACACGTGTCTTT | 0.06
113 | GGGGGCACGTGTGTAG | -0.04
114 | TTTGCCACGTGATTGG | 0.01
115 | GCTTGCACGTGTTTGG | 0.09
